Measurements from ChEMBL document CHEMBL4888484, “Replenishing the malaria drug discovery pipeline: Screening and hit evaluation of the MMV Hit Generation Library 1 (HGL1) against asexual blood stage Plasmodium falciparum ,using a nano luciferase reporter read-out” (2022).
The whole screen tested about 150,000 compounds, of which about 540 (0.36%) showed an effect of 50% or more. This is one part of the list.

What follows are molecules tested on Plasmodium falciparum (assay: Primary screen in NF54 nanoGlo assay, in single point, at 2uM, 72h; a lower Z score goes with more inhibition). Details: timepoint 72 hour.
Type: functional, Erythrocyte
`CN(C)[C@H]1CCCN(C(=O)c2ccc3c(c2)COCO3)C1` was tested, and the “% Inhibition” value was -1% and the Z score was 0.18. With `COc1ccc(Cl)cc1NC(=O)Cn1c2ccccc2n2c(=O)cc(-c3cccnc3)nc12` the “% Inhibition” value was -16% and the Z score was 1.82. `CN1CCC(N2CCC(CN(Cc3ccncc3)C3CCOCC3)CC2)CC1` was tested, and the “% Inhibition” value was 0% and the Z score was 0. With `O=C(c1cncc(-c2ccc3c(c2)CCO3)c1)N1CCOC2CCCCC21` (centres undefined) the “% Inhibition” value was -10% and the Z score was 1.79. For `CC(C)n1cnnc1C[C@H]1CCN(C(=O)CC2CCCCC2)C1`, the “% Inhibition” value was -6% and the Z score was 0.96. For `COc1ccc2cc3c(nc2c1)NCC3`, the “% Inhibition” value was -13% and the Z score was 1.78. For `O=C(c1ccncc1)N1C[C@@H]2OCC(=O)N(Cc3ccncc3)[C@@H]2C1`, the “% Inhibition” value was 33% and the Z score was -3.69. `CCc1cccc(OCCn2ccc(=O)c3cnn(C)c32)c1` was tested, and the “% Inhibition” value was -2% and the Z score was 0.22. For `O=C(CN1CCC2(CC1)NC(c1ccc(OC(F)(F)F)cc1)=NO2)Nc1cccc(F)c1`, the “% Inhibition” value was 25% and the Z score was -3.34. For `O=C(NC1CCCCC1O)C1(O)CCCC1` (centres undefined), the “% Inhibition” value was -7% and the Z score was 1.15. `OC(CNC1CCc2c(Br)cccc21)c1ccco1` (centres undefined) was tested, and the “% Inhibition” value was 2% and the Z score was -0.28. In the case of `CCC1CN(S(=O)(=O)C(C)C)CCC1NC(C)c1nnc(C)o1` (centres undefined), the “% Inhibition” value is reported as -14% and the Z score is reported as 1.26. In the case of `Cc1cc(C)cc(C2(CNC(=O)NC[C@]3(O)CCCNC3)CCCC2)c1`, the “% Inhibition” value is reported as -4% and the Z score is reported as 0.54. `O=C1N[C@H](c2ccc3c(c2)OCO3)Oc2ccccc21` was tested, and the “% Inhibition” value was -4% and the Z score was 0.49. In the case of `Cn1cccc1C(=O)NCc1nnc2cc(C(F)(F)F)ccn12`, the “% Inhibition” value is reported as 13% and the Z score is reported as -1.68. With `CCn1c(-c2cc(NC(=O)Cc3ccc(C)cc3)[nH]n2)c(C)c2ccccc21` the “% Inhibition” value was -8% and the Z score was 1.12. With `COc1ccccc1CNC(=O)c1ccc(C)nc1C1CCN(Cc2ccco2)CC1` the “% Inhibition” value was -8% and the Z score was 0.8. For `O=S(=O)(Cc1ccccc1)NC1CC1`, the “% Inhibition” value was 1% and the Z score was -0.08. In the case of `COc1cn(CC(=O)NC2CCCCC2)c(CN2CCc3ccccc3C2)cc1=O`, the “% Inhibition” value is reported as -5% and the Z score is reported as 0.57. With `O=C(c1ccnc(-c2ccccn2)n1)N1CC[C@H]2CC[C@H](O)[C@H]21` the “% Inhibition” value was -11% and the Z score was 1.91. In the case of `CS(=O)(=O)NC1CCCC1CNC(=O)[C@@H]1C[C@H]1c1cccnc1` (some centres undefined), the “% Inhibition” value is reported as -5% and the Z score is reported as 0.42. With `Cc1c(Cl)ccc2c(C(=O)NC3CCC(C)CC3)cc(-c3cccnc3)nc12` (centres undefined) the “% Inhibition” value was -4% and the Z score was 0.47. With `c1ccc2c(-c3cc4c(c(O[C@H]5CCOC5)c3)OCCNC4)csc2c1` the “% Inhibition” value was -8% and the Z score was 1.61. With `Cc1n[nH]c(=O)c(C(=O)NCC2CCC(C)CC2)c1C` (centres undefined) the “% Inhibition” value was -16% and the Z score was 1.96. For `O=C(NC1(CCO)CCCC1)c1ccc(N2CCC2)nc1`, the “% Inhibition” value was -11% and the Z score was 1.48. In the case of `CC(O)CC1COCCN1C(=O)NCC(C)c1ccsc1` (centres undefined), the “% Inhibition” value is reported as -14% and the Z score is reported as 1.43. In the case of `Cc1nnccc1NC(=O)N[C@@H](C)c1cc(Cl)cc2c1OCC2`, the “% Inhibition” value is reported as -7% and the Z score is reported as 1.08. In the case of `COCCN1[C@@H]2CCN(C(=O)c3ccc(C)s3)C[C@@]2(C(=O)N2CCOCC2)CCS1(=O)=O`, the “% Inhibition” value is reported as -10% and the Z score is reported as 1.46. `CN1CCC[C@H](CNS(=O)(=O)c2cc(C(N)=O)cs2)C1` was tested, and the “% Inhibition” value was -11% and the Z score was 1.88. With `CCC[C@@]1(C2CCN(C(=O)c3ccc4c(c3)OCCO4)CC2)NC(=O)N(CCc2ccccn2)C1=O` the “% Inhibition” value was -2% and the Z score was 0.31. In the case of `CCC1Oc2cc(S(=O)(=O)N3CCCC(C(=O)N(C)c4ccc(C)cc4)C3)c(C)cc2NC1=O` (centres undefined), the “% Inhibition” value is reported as -20% and the Z score is reported as 2.61. `C=CCn1nc(C(=O)O)c2c1CC[C@H](N1CCC(C(=O)N3CCCC3)CC1)C2` was tested, and the “% Inhibition” value was -16% and the Z score was 1.69. For `Cc1ccc(NC(=O)CN2CCC[C@@H]2CO)nc1`, the “% Inhibition” value was -4% and the Z score was 0.65. `Cn1cnn(CC(=O)N2CCCC2C2CCCc3ccccc32)c1=O` (centres undefined) was tested, and the “% Inhibition” value was -11% and the Z score was 1.02. With `Cc1cc(CNC(=O)N(C)C[C@H]2COCCO2)on1` the “% Inhibition” value was -4% and the Z score was 0.49. With `Cc1cc(CN(C)[C@H]2CCNC2=O)no1` the “% Inhibition” value was -3% and the Z score was 0.56. In the case of `COCCN1CC(=O)N[C@H]2CN(C3CCCCC3)C[C@@H]2OCc2cccc(c2)Oc2cc(ccc2OC)CCC1=O`, the “% Inhibition” value is reported as -8% and the Z score is reported as 1.51. With `O=C(c1nccc2ccccc12)N1CCC(c2nnco2)CC1` the “% Inhibition” value was -9% and the Z score was 0.91. For `COc1ccc(CCN2CC(=O)N3Cc4ccccc4C[C@@H]3C2=O)cc1`, the “% Inhibition” value was -6% and the Z score was 1.08. In the case of `CCOC(=O)c1ncoc1-c1ccccc1C(=O)N1CCN(c2cccc(C(F)(F)F)c2)CC1`, the “% Inhibition” value is reported as 9% and the Z score is reported as -1.46. With `O=C(CC1CC2CCC1C2)Nc1ccccc1-c1nc2ccccc2s1` (centres undefined) the “% Inhibition” value was -20% and the Z score was 1.69. In the case of `Cc1ccc(-c2nc(COc3nnc4ccccn34)cs2)o1`, the “% Inhibition” value is reported as -9% and the Z score is reported as 0.8. For `O=C(Nc1cccc(Br)c1)C(F)(F)F`, the “% Inhibition” value was -13% and the Z score was 2.39. `COCCN(Cc1c(-c2ccccc2)noc1N1CCN(C)CC1)C(=O)c1ccc(C)cc1` was tested, and the “% Inhibition” value was 30% and the Z score was -1.01. With `CCN(CC)C(=O)[C@@H](C)[C@@H]1CC[C@@]2(C)CC[C@H](NC(=O)c3cncnc3)[C@@H](C)[C@@H]2[C@H]1O` the “% Inhibition” value was -16% and the Z score was 2.84. With `COCCCn1c(C)c(C)c(S(=O)(=O)c2ccccc2)c1NC(=O)c1cccc(C)c1` the “% Inhibition” value was -3% and the Z score was 0.44. `CC(NC(=O)c1c(O)cccc1F)C1CCOC1` (centres undefined) was tested, and the “% Inhibition” value was -15% and the Z score was 1.32. With `Cc1cc(C)n2c(C(=O)NCCNS(=O)(=O)c3ccc(Cl)cc3)nnc2n1` the “% Inhibition” value was -9% and the Z score was 1.16. In the case of `O=C1NCCN(Cc2cccs2)[C@H]1CC(=O)N(CCc1ccccc1)Cc1ccccc1`, the “% Inhibition” value is reported as 12% and the Z score is reported as -1.61. For `CN(C)C(=O)c1cnc(N2C[C@@H]3[C@@H](CF)[C@@H]3C2)c(Cl)c1`, the “% Inhibition” value was -11% and the Z score was 1.91. `COc1ccccc1N1CCN(C(=O)c2cn3c(n2)CC[C@H](c2ccccc2)C3)CC1` was tested, and the “% Inhibition” value was -16% and the Z score was 1.57. With `Cc1nc(C(C)NS(=O)(=O)CC2CCOC2)cs1` (centres undefined) the “% Inhibition” value was -1% and the Z score was 0.23.
